Key:
[1] = test system: UMUC14 bladder cancer cells (endogenous FGFR3 S249C); assay: Cancer cell spheroid proliferation assay (CellTiter-Glo 3D); type: cell-based; details: 100 nM to 15.2 pM, 5-6 days, FIG. 4
Method: 7500 UMUC14 bladder cancer cells were seeded in U-bottom low attachment 96-well spheroid plate (Corning) in culture medium (MEM medium with 10% FBS, 1% Non-Essential Amino Acids, Pen/Strep). Cells were cultured for 48 hours at 37° C. 5% CO2 to allow tumor spheroid formation. Tumor spheroids were treated with antibodies at concentration ranging from 100 nM to 15.2 pM with 1:3 serial dilution as indicated in the figure. Cells were cultured for 5-6 days, and then subjected to CellTiter-Glo 3D viability assays (Promega) following the manufacturer's protocol. Luminescence signal was read on SpectraMax M3 plate reader. Cell proliferation was expressed as percentages of untreated controls. Data were analyzed using GrasphPad Prism software using three parameter nonlinear curve fit.

[2] = test system: cynomolgus FGFR3b (mfFGFR3b.mmH, REGN3521); assay: Biacore SPR binding kinetics, monomeric cynomolgus FGFR3b to captured antibodies; details: 25° C.
Method: (§1) Biacore binding kinetics of anti-FGFR3 antibodies, in an antibody capture format, to monomeric human FGFR3b, cynomolgus FGFR3b, murine FGFR3b, human FGFR3c, and dimeric human FGFR3b ecto domain recombinant proteins at 25° C. were analyzed.
(§2) Equilibrium dissociation constants (KD values) for human FGFR3b expressed with a C-terminal myc-myc-hexahistidine tag (hFGFR3b.mmH, REGN3152) or cynomolgus FGFR3b expressed with a C-terminal myc-myc-hexahistidine tag (mfFGFR3b.mmH, REGN3521), or murine FGFR3b expressed with a C-terminal myc-myc-hexahistidine tag (mFGFR3b.mmH, REGN3215) or human FGFR3c expressed with a C-terminal myc-myc-hexahistidine tag (hFGFR3c.mmH, REGN3155) or human FGFR3b expressed with an C-terminal murine Fc tag (hFGFR3b.mFc, REGN3153) binding to purified anti-FGFR3 antibodies were determined using a real-time surface plasmon resonance biosensor technology using a Biacore 3000 or Biacore 4000 instrument. The CM5 Biacore sensor surface was derivatized by amine coupling with a monoclonal mouse anti-human Fc monoclonal antibody (REGN2567). All Biacore binding studies were performed in a buffer composed of 0.01M HEPES pH 7.4, 0.15 M NaCl, 3 mM EDTA, 0.05% v/v Surfactant P20 (HBS-EP running buffer). Different concentrations of monomeric proteins prepared in HBS-EP running buffer (ranging from 90 nM to 3.33 nM in 3-fold serial dilutions) or dimeric protein (hFGFR3b.mFc, REGN3153) prepared in HBS-EP running buffer (ranging from 30 to 10 nM in 3-fold serial dilution) were injected over the captured anti-FGFR3 antibodies at a flow rate of 30 μL/minute. Antibody-reagent association was monitored for 5 minutes while dissociation in HBS-EP running buffer was monitored for 10 minutes. At the end of each cycle, the anti-FGFR3 antibody capture surface was regenerated using a 10 sec injection of 20 mM phosphoric acid. All binding kinetics experiments were performed at 25° C.
(§3) The specific SPR-Biacore sensorgrams were obtained by a double referencing procedure. The double referencing was performed by first subtracting the signal of each injection over a reference surface (anti-hFc) from the signal over the experimental surface (anti-hFc-captured anti-FGFR3 antibodies) thereby removing contributions from refractive index changes. In addition, running buffer injections were performed to allow subtraction of the signal changes resulting from the dissociation of captured antibodies from the coupled anti-hFc surface. Kinetic association (ka) and dissociation (kd) rate constants were determined by fitting the real-time sensorgrams to a 1:1 binding model using Scrubber v2.0c curve fitting software. Binding dissociation equilibrium constants (KD) and dissociative half-lives (t½) were calculated from the kinetic rate constants as: […]

[3] = target: T1, murine FGFR3b (mFGFR3b.mmH, REGN3215) (Mus musculus, UniProt Q61851); assay: Biacore SPR binding kinetics, monomeric murine FGFR3b to captured antibodies; details: 25° C.
T1 construct: REGN3215 (murine FGFR3b expressed with a C-terminal myc-myc-hexahistidine tag)
T1 sequence (Q61851 with tags, fused parts or gaps isoform Q61851-2): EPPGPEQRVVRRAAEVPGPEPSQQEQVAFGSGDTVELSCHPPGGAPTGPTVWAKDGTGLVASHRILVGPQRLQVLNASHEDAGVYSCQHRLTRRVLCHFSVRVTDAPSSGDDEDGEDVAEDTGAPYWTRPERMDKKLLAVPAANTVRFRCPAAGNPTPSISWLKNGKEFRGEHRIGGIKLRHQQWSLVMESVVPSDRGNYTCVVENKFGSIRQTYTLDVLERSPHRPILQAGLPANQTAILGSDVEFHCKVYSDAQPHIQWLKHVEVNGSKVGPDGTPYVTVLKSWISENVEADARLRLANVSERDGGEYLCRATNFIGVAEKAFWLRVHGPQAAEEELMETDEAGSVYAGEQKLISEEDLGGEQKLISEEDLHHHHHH
Method: as §1, §2, §3

[4] = target: T2, FGFR3 S249C dimerization in UMUC14 bladder cancer cells (Homo sapiens, UniProt P22607, S249C); assay: Receptor dimerization assay, non-reducing SDS-PAGE; type: cell-based; details: antibody 3 hrs, FIG. 2
T2 construct: bladder cancer cell line UMUC14 with endogenous FGFR3 S249C mutation; host or cells: UMUC14 bladder cancer cells
T2 sequence (P22607 23-808 isoform P22607-2 S249C limits assumed): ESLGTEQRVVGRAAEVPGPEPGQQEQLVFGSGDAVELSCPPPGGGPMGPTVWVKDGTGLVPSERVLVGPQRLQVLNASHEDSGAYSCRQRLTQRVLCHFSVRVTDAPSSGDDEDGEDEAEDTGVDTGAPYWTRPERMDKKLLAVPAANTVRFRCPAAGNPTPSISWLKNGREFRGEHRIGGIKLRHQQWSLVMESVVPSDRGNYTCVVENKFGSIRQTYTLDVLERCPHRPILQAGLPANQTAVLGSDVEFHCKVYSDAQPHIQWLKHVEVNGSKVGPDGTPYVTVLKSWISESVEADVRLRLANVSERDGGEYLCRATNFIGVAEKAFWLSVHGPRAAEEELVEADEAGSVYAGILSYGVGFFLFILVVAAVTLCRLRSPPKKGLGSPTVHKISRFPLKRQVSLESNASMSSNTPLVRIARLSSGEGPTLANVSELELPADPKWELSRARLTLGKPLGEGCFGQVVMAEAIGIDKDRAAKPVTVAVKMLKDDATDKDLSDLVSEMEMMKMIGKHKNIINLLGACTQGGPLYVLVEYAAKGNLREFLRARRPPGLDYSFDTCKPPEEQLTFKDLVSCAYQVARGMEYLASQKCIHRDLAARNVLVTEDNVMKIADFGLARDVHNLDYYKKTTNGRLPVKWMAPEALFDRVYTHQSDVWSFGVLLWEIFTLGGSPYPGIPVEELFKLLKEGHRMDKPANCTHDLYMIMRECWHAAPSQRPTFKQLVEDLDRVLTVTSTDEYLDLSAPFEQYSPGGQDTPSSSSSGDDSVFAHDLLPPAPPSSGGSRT
Method: Assays evaluating the following were performed: (1) Inhibition of FGFR3 S249C dimerization using bladder cancer cell line UMUC14 with endogenous FGFR3 S249C mutation; and (2) Inhibition of FGF1/heparin induced downstream signaling in BaF3 cell expressing wild-type FGFR3.
For the receptor dimerization assay, UMUC14 bladder cancer cells were seeded in 6 well tissue culture plate (Corning) in complete medium (MEM medium with 10% FBS, 1% Non Essential Amino Acids, Pen/Strep) and cultured overnight at 37° C. 5% CO2. Cells were then serum starved overnight in starvation medium (MEM medium with 0.5% FBS, Pen/Strep) followed by antibody treatment for 3 hrs at indicated dose. Cells were washed with pre-chilled PBS and collected in lysis buffer containing protease inhibitors. Equal amount of cell lysate were analyzed by either reducing or non-reducing SDS-PAGE. Blots were blocked in 0.5% Tween 20 in Tris buffered saline (TBS) containing 5% non-fat dry milk followed by overnight incubation with anti-FGFR3 primary antibody (Santa Cruz). After washing 3× with TBST and incubation with secondary antibody, membranes were developed with SuperSignal West Pico or Femto substrate and luminescence images were captured with a C300 imager (Azure Biosystems).

[5] = test system: BaF3 cells expressing FGFR3 S249C/V557M; assay: BaF3 proliferation assay, FGFR3 S249C/V557M; type: cell-based, murine; details: FIG. 12B
Method: IL-3 dependent murine pro B cell line BaF3 cells were engineered to stably express full length human FGFR3b S249C, V557L, V557M, S249C/V557L, S249C/V557M (accession number for WT FGFR3b NP_001156685.1, amino acids M1-T808). Cells were maintained in RPMI 1640+10% FBS+P/S/G+1 ng/ml mouse IL-3+500 ug/ml Neomycin; 37° C. 5% CO2. For proliferation assays, cells were washed with IL-3-free culture media and plated at 10^5 cells/well into 96-well black wall tissue culture plates. Cells were treated with 1:3 serially diluted antibody as indicated in the presence or absence of 5 μg/ml heparin and 1 nM human FGF1. After addition of antibodies, cells were incubated at 37° C./5% CO2 for 72 h followed by the addition of an equal volume of CellTiter-Glo™ (Promega) reagent to lyse cells and detect luciferase activity. Luminescence signal was quantitated with Envision plate reader (PerkinElmer). EC50 values of the antibodies were determined using GraphPad Prism software.

B1: H4H30063P: anti-FGFR3 antibody, hIgG4^P; HCVR/LCVR SEQ ID NOs: 2 & 10; HC/LC SEQ ID NOs: 18 & 20 (antibody)
heavy: QVQLQESGPGLVKPSETLSLTCTVSGDSINSYFWSWIRQLPGKELEWIGHIYSSGSTRYNPSLQSRVTISIDTSKNQFSLKLSSVTAADTAVYYCARGASAVDYWGQGTLVTVSSASTKGPSVFPLAPCSRSTSESTAALGCLVKDYFPEPVTVSWNSGALTSGVHTFPAVLQSSGLYSLSSVVTVPSSSLGTKTYTCNVDHKPSNTKVDKRV[sequence of human IgG4 Fc with S228P (EU numbers) not given]
light: EIVLTQSPGTLSLSPGERATLSCRTSQSISSGYLAWYQQKPGQAPRLLIYGASRRATGIPDRFSGSGSGTDFTLTISRLEPEDFVVYYCQQYGSSPYTFGQGTKLEIKRTVAAPSVFIFPPSDEQLKSGTASVVCLLNNFYPREAKVQWKVDNALQSGNSQESVTEQDSKDSTYSLSSTLTLSKADYEKHKVYACEVTHQGLSSPVTKSFNRGEC
[1]
  inhibition of UMUC14 spheroid proliferation (in words): stronger inhibition of proliferation than antibody H4H30071P and comparator antibody REGN6331
[2]
  ka: 153000 M⁻¹ s⁻¹
  kd: 4.21e-05 s⁻¹
[3]
  ka: 204000 M⁻¹ s⁻¹
  kd: 2.78e-05 s⁻¹
[4]
  inhibition of FGFR3 S249C dimerization (in words): dose dependent inhibition of FGFR3 S249C dimerization and stronger inhibition of receptor dimerization than comparator antibody REGN6331
[5]
  growth inhibition of BaF3 cells expressing FGFR3 S249C+V557M (in words): strongly inhibit the growth

Source: patent publication US20240158515A1, “ANTI-FGFR3 ANTIBODIES AND ANTIGEN-BINDING FRAGMENTS AND METHODS OF USE THEREOF” (Regeneron Pharmaceuticals, Inc., priority 2022, published 2024)
